Article PMC10726135
Some of the results follow. At the low end of the ranking the order means little. The protein was read in a cell extract, so binding may be indirect.

Target: T1, HNF4alpha2 (COS-7 nuclear extract) (UniProt P41235)
T1 sequence: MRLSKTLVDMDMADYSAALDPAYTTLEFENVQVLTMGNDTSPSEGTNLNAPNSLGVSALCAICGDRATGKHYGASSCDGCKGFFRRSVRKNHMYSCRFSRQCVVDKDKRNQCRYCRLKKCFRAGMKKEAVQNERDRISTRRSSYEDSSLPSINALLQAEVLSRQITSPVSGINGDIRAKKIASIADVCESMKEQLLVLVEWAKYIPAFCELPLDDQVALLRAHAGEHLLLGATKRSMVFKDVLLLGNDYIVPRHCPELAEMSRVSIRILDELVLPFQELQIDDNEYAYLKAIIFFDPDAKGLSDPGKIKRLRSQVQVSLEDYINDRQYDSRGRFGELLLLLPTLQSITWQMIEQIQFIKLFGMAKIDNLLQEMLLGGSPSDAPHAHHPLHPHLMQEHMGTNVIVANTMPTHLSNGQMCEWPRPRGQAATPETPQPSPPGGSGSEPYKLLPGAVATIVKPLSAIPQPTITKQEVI
Experiment: protein-binding microarray
Conditions: COS-7 nuclear extract on double-stranded Agilent 4x180k PBM; binding buffer, salt, pH and temperature not given; high values mean tight binding; double strand, one strand shown; sequences stand for … in …GCCTAGGGAGATTAGAGTATCGGTCGA

Sequence	binding signal (log2 normalized intensity)
CATTACTATCTGCTGGGGGCTGGGCCCCAC	-1.21
GTGGCCACAAAATGAACACCTGTTCTAATC	-0.644
GAAATAGTGAGACAGACATGCGACATGAGG	0.09
GGAGGCTGCAGCGCCACATTCTGAGCCAGC	-1.02
CTCCCCTCCTCCCTTGCTCACCCCACGGTT	4.18
TTCAGGTTTGCTAATATCTGATGTTAAATC	1.81
GAAACAACACCAGCAATCACCTACCCCCAG	3.95
AAAAATGGGCTGGGACTCATTTATGGAGGA	-0.911
TCACACGGGGATGGCAGACGGGGCTCTCAG	-1.06
AAACAGGTGAAAGATAAGGGCTAGTTCATT	-1.07
TTCTTGTTAACCTCCTATGATCTTTCATTC	0.946
CAGGCGCCGACTGCCAGGAGGGGACTTCAA	-1.15
GTCATAAGAAACATTTTACAACCTATTCTC	-0.9
GCTAAAACCCTGGCCACTCCCTGATAGAGA	-1.07
AATATGGTCCCTGACCTTAAGGAGTGTCCT	1.99
TACAGATATTCTGAGACAACACTCAGGATA	0.111
TTTTCTCCTTTCCTCCTATGTCAATAGAGC	0.915
GGCCGTATCAGAAGAACTGCACTGTATCTT	0.466
AGCGATCATGGGTGACCCGTTAAGAATGAG	0.437
GGGGGTAGGTGGAGTGAGGGAGGGGGGCTG	-1.09
AAAGCCCTAGCTGACTGCGTCAGGCAGTTG	-1.3
GGTCACGTGCCGCTGCGGGTCACGTGCCGC	-0.00572
TTATCTATACAGTTGTGGGTATGTCTGTAG	1.97
CCTCAGAGATGTTTAGTGAGCTGTCTAATT	0.518
ATCATTTCTACAGGGTCAAGCAAACAAATG	1.32

Sequence	binding signal (log2 normalized intensity)
TGCCCATCTGGTGGTGGTTCTTGTTTCATT	1.73
AAGCTCTGAAAGCTTCAAAGGACAGGCTGA	-1.12
AGGTCAGAGGACTTCCAAAGCCCCTTTCCA	0.462
GGATAAGTCTGTCTTGCTGTTTTTCCAGTT	1.83
AAATGCCTTCAGGGGCATTTGAGTACATGC	0.926
AAGTTCCACATCAAGCACATTCCAGAACCA	-0.922
CTCCTGGTTGGGGCCTCCCTCCGTGGGGCT	-1.18
AGTTTCTTCACTGACGAAACTCACATACTG	-1.18
TACTATGCAATAACCAGGGAGTGGCAGCAT	-1.08
CACCTTTTGGCTGTAGAAAGACTAAAGTTC	2.19
CTTTAGCTCAGCGGTTACTTCGAGTACATT	0.818
GAACCATTTGTGAGGATGGGCAGTCCCTAT	-0.968
GATCTCCCCACATTCCAACACAGGGTCAAT	3.03
GCTGTGTGACTCACCTTTGCTCTGATCTTT	3.17
CAGTTTGGCTTCTGACCTTTGGCATTGTGT	5.81
CCAAATCCCTGCCCACATCCATTTTCTATC	1.11
TCAATGTCCCCTTAGGAATAGTATCAGGCA	1.22
ATCTGCTGCCCTTCCCTCCACTATTGTCCT	2.8
AATGGACCCAAGCGGCCATTTACTGACTAA	-0.855
TGAGAGGTGCTGCATGGGCTGAGCCCAGCA	-1.23
AGGACCATGTTCTCCTAAAGTGACTAGAGA	-1.12
AACAGGGCTCCTGTTCAGCATAGTCCTGCC	-1.1
CATGAGAAACATCCACATGTGGGTCCAAAG	2.45
CCGCCTCTTGGCCTCCCCCTTCTGAGTCTC	2.69
TGGATCGCTTGGCTCAGGCCGGTTGGCCAG	-1.15

Sequence	binding signal (log2 normalized intensity)
GAAACGGGTTCAAGCTTGATCCAGGATCCT	-1.02
TGCGGCTCTTCTGATCGTGAGAAGAGGACT	-0.118
CTCTCTTTGTGAAATGGGACCCAACTTTTG	1.3
GCTTAATCTCTGCTCATAATGCCAGGCAGG	-0.432
GGTCAATGTGCACATTCGAAGTTTTGCTCC	1.37
GACAGAAGGGAGAGTCCAAGATACCACTGA	-1.15
AGAAATGTTATCTCAGTAGACTAACGTATG	0.476
GCATCGTGGGTATTTGGGGAGTTCTTTCTG	1.1
AATGATCTGGTCAGACTGAGAGAGCAGGGC	-1.05
GCCTCTAGCCCAATATTTGCTTACCAAACT	-0.117
GCCTGGCGTGGATTCCGAGCGTTGGTGTCT	0.858
CAGGTCTTTCTGGAGATAACAGTGTAAGGA	1.28
TGGTTTTATGGTGTCTTATCTTCCTCTGGC	1.96
ATTGACCCTTAGGCCAAGGCTTACTGGCGC	-1.03
TCCAGCCTCCAGCTACTCACTCTTCCCAAA	-1.12
GTGAGGGAGAAGTTTTATGGCAGGGTCGGA	1.77
CAGTGTGGCAGGTGAAATAGCTGAACTATT	0.604
CCCCGCGCCGCGTCCCTTCCCCCGGCGCAG	4.24
GATTAAACAAACAAGTTTTATTGGGGGGTC	1.38
ATCTGAGGTGGTCCAGGGCCCTTACCATCA	-1.11
CGTGCGGTCGGGCGCGCGGGCCGGGAGGGG	-1.15
ATAGAACACTTGTACATACTTTTGGGGTAT	0.796
GAGGGTGGTGGGTGAAGGATGGAATGCTGA	-1.16
TTCAACCTCTTTCTCTTTGATGTAAATTTT	1.36
TGAAGAAAGATCACACAAATGGATCTTTCT	-1.1

Sequence	binding signal (log2 normalized intensity)
CAAATCATTACTATCTGCTGGGGGCTGGGC	0.13
AAACATCCTGCCTAACCACCTGACCACAAC	-1.01
ACTTGTGGTATGTTTGGATTGGGCAATGAC	1.87
TCTGATGTACCCAGCACTGTCAGCAGGGGG	-1.08
CATAGACCCTGTTGGTTTCTGGGATTTGTA	0.967
TAGTCTCCTATCAAGAAAATAGAAGTGCTA	-1.17
ATTCCCTCCAGCAGGGGATGCCCTTTGACC	8.91
TGTCGCTATCTTATCTGGGCCAGGTATTTG	1.1
CTTGTGGCTGGGTGATCTGGGAAACAGGCT	-1.11
GGACTTTGGCCCTCAGCCCAATGTGGTAGG	5.47
CACCATTCCTGGCAGCCAGCTGGTTTGCCT	-0.903
TTTTTTCTCTCCCCTTTTAATACAAGTATT	1.63
TAGGTTTGTGAGTCCAAAGGTCAGCCGGGG	7.74
AAGGAGAAGGCTCCCAAGGTATCCTCCTAG	-1.08
TCCCTTCCCGGGGAGTCCTGGGCGTTGCTC	-0.443
AGGGATTTCAGTGCCCTCATAAGAGACTTT	1.84
CAGCCCAGTGGTAATGGAGCTGAAACTATA	-1.02
GCTCTTTACCCCTGCAAGGATTGATCAGCA	1.64
CAAACAAGAAAGTTGAGGTGAATACACAGC	-1.05
CTTTATGACTTGGGTGCACCAATGATCAAA	1.3
AAGGAAGGAGGGAGGCAGGGAGACAACCTG	-1.04
CTTCATTCCCGAGTGCCTTTAGAGGGCAAG	2.12
CTGGAAAGGGCTTCAGAGTCGATAGTCCAA	1.18
CATCAGATACCTACTCTGCTCTTCTCTCTG	-0.613
AATTGTTCAACATGGTGACTCTAGTCAATG	1.32

Sequence	binding signal (log2 normalized intensity)
TAGTGCCTGGATCTTGGAACAGGTCTCAGG	-0.0841
GTGGACTTTGCCTGCCCATCCCGTGGACTC	3.88
CCCACCTTGTTATCTTGTCTCTTCTTGTAC	1.98
AATGCAGCCTTATCTTCCAGCCCTGTCTCT	-0.713
ATCCCCGCTCCCCTCCCCCACCCGCGGTCC	6.38
CTCGGGGCCAGGTGGGCTGCTCCCAGTGCC	-1.04
GATCAGGCAAGTGGTCATGTAGGTGTCTCA	0.912
GAAGGTTATTAGTGATAAGCAGAGGATGGG	0.397
AACTGAGTTACGTAATGTGTCCCCACATCT	2.27
CCTGGTGGACCCAGCTGGTAAGTGCAAGGC	0.0281
AGAGAAGGGCTGAAGGTTAATTCGCTCATC	0.389
CAGGACTGCGTAACTTACAGTGCACTTTGA	4.9
TATCGCCCTTCTGTCAAGTCCAAAGTTCTT	4.55
CCTATCAGCTACTCATGCTTTCTTATCTGG	1.17
GACCGAGGGTTAAGCTCATGCTTTCATCTC	-1.12
ATTTAGTAAGTTCAAGAAGACCTTTGCTCC	5.89
ACCCATCCCTTTGCAATAAAAGATTGCATC	0.385
TGAAGTAAATGCAGTTTGTCAAGTGCCCGG	1.19
ACTCTGACCCAGGAGCCTTCCGGAGGCTCT	-1.08
CAAAGTTATCAAGTTGCTTAAATTCTTGTA	0.487
AAAAAATTCAAAGCAGAGGTGACCCTTGCA	3.06
CCACTCTGCCTTCAGCGGTGCATTTTTTTC	1.12
AGGGTATAGGATAAGGAATGAAGCAGAACC	-1.02
GCTGCTACTTTAGCTGCCAGAGGTTCTTTC	0.494
AACTGGAGTAAAGGTCACTCTTGCTATGCA	2.79

Sequence	binding signal (log2 normalized intensity)
CTTTCATCTTTGCGGTGAGCATTTGTTTAG	1.46
CTGGCTGACCTTTAGCCTGGCCATTTCTCA	4.34
AACATCAGGGTGCCAGCAGGTGGTCAGCCT	-1.24
GGGTTACAGGTGGACAAACAGGCTGAACAT	-0.854
GAAGACCAACAGGTGAAGACATGCTGGTGT	-0.696
GATAAGCAGAAGGTCAGGTGAATCAACGAT	-0.985
AGGGCCCGAGGCCTTGAGCATACAAAACCC	-1.18
GTGTCAACATGGACTTTGTTGTTTGCCTCT	3.48
TGATGCATCCTGAGGCAAAATTCCTCGCTA	-1.15
GAAGTTGCCCGAGCTGCCCTTTATCTCCTC	1.88
GTTGCTTCAAAGGGCAAAAGGGCAAAACTG	3.92
GCTGGCGGGAGCATAGCAGCGAGGACAACC	-1.3
CCTGTTTAAAGAATTTTTCCCCTAGTTACA	1.72
CCAGATGTTACCACCCAGACCAGTAACCTA	-1.1
TGGACTTTGCACTAAAAGCCATGAGAAGGT	4.84
ACTGACCCAGGGAGAAAGGTCAGGGGCAGG	1.02
TATGGGTTAACAGAATGAACAGCTCTTCTT	0.252
GGTCAAAGGGTAAAGATTATGAACTAATTT	1.41
TAAGTCACTGGGCTGATGACCTTTGACTGA	7.08
TAGAGTCAATACTCCACAAGACCACAAGGT	-1.01
